Reference: publication PMC8340461
Changes are numbered by the printed parent chain. Names and notes keep the numbering of the source. No constants are given. Whether binding was seen depends on the method and setting. Binding seen in cells or lysates may run through a third protein. Some results given as binding are weak or reduced against the parent protein; the word gives no strength. Where a sequence is shown, tags or fusion partners need not be part of it. Each block holds one binder with its values, some of them ahead of it.

The chains behind the UniProt entries cited, without tags or fusion partners. Where a name states a change or a piece, a line headed by the entry shows the natural chain unless it says otherwise.
UniProt O43791: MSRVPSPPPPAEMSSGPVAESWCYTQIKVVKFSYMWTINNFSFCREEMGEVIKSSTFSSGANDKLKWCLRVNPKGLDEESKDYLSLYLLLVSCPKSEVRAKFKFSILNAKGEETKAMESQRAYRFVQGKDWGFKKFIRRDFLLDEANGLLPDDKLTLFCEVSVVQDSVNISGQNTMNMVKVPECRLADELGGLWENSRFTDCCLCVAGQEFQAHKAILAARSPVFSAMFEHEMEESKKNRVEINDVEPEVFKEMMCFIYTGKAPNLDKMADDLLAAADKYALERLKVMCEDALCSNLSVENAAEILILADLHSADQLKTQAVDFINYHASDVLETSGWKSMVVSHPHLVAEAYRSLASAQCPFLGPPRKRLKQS

Experiments:
[1] = target: GST-SPOP (speckle-type POZ protein), wild type (UniProt O43791); experiment: pull-down; GST pull-down from whole cell lysates of co-transfected HEK293T cells (Fig. 2B, 4A, 4E, 5D, 6B), immunoblot; MG132 (10 μM) for 10 h before harvest in Fig. 2B and 5D; λ-phosphatase on the lysates in Fig. 4A (interaction dramatically reduced); GSK3β-S9A co-expressed in Fig. 4E (interaction enhanced)
[2] = target: GST-SPOP Y87C (UniProt O43791); experiment: as above
[3] = target: GST-SPOP F102C (UniProt O43791); experiment: as above
[4] = target: GST-SPOP F133V (UniProt O43791); experiment: as above
[5] = target: GST-SPOP (speckle-type POZ protein), wild type (UniProt O43791); experiment: condition: only cells treated with the GSK3β inhibitor CHIR-99021 (10 μM) for 10 h; pull-down; GST pull-down from whole cell lysates of transfected HEK293T cells treated with the GSK3β inhibitor CHIR-99021 (10 μM) for 10 h before harvest (Fig. 4E)
[6] = substrate: SPOP (speckle-type POZ protein), wild type, tag not shown (UniProt O43791); experiment: co-IP; immunoprecipitation from whole cell lysates of transfected HEK293T cells (EBC buffer; washed with NETN buffer), immunoblot (Fig. 3B, 4N, 4O); MG132 (10 μM) for 10 h in Fig. 3B; Myc-CK1δ co-expressed in Fig. 4N-O

- binding [1]: binds
- binding [2]: no binding
- binding [3]: no binding
- binding [4]: no binding
- binding [5]: no binding
B1: Flag-PDK1 (3-phosphoinositide-dependent protein kinase-1), wild type (protein, UniProt O15530 1-556)
chain: MARTTSQLYDAVPIQSSVVLCSCPSPSMVRTQTESSTPPGIPGGSRQGPAMDGTAAEPRPGAGSLQHAQPPPQPRKKRPEDFKFGKILGEGSFSTVVLARELATSREYAIKILEKRHIIKENKVPYVTRERDVMSRLDHPFFVKLYFTFQDDEKLYFGLSYAKNGELLKYIRKIGSFDETCTRFYTAEIVSALEYLHGKGIIHRDLKPENILLNEDMHIQITDFGTAKVLSPESKQARANSFVGTAQYVSPELLTEKSACKSSDLWALGCIIYQLVAGLPPFRAGNEYLIFQKIIKLEYDFPEKFFPKARDLVEKLLVLDATKRLGCEEMEGYGPLKAHPFFESVTWENLHQQTPPKLTAYLPAMSEDDEDCYGNYDNLLSQFGCMQVSSSSSSHSLSASDTGLPQRSGSNIEQYIHDLDSNSFELDLQFSEDEKRLLLEKQAGGNPWHQFVENNLILKMGPVDKRKGLFARRRQLLLTEGPHLYYVDPVNKVLKGEIPWSQELRPEAKNFKTFFVHTPNRTYYLMDPSGNAHKWCRKIQEVWRQRYQSHPDAAVQ

- binding [1]: no binding
B2: PDK1 S398L (protein, UniProt O15530 1-556)
chain: B1 chain with S398L

- binding [1]: no binding
B3: PDK1 S390L (protein, UniProt O15530 1-556)
chain: B1 chain with S390L

- binding [1]: no binding
B4: PDK1 S394L (protein, UniProt O15530 1-556)
chain: B1 chain with S394L

- binding [6]: binds
B5: PDK1 (3-phosphoinositide-dependent protein kinase-1), wild type, tag not shown (protein, UniProt O15530 1-556)
chain: B1 chain

- binding [1]: no binding
B6: PDK1 Q387R (protein, UniProt O15530 1-556)
chain: B1 chain with Q387R

- binding [1]: no binding
B7: PDK1 Q387H (protein, UniProt O15530 1-556)
chain: B1 chain with Q387H
